Several values for one entry are separate records, joined by “and”; a condition that tells them apart may be missing. Identical values can stand only once. Inconclusive results, whose numbers are uncertain, are shown with a selection of clear calls. Where the call is inconclusive, the potency comes from a doubtful curve fit. Activity calls are given as the source filed them. The call rests on the fitted dose curve; in most records, active means well fitted cell-killing curve with a large enough effect; inconclusive means small, poorly fitted or top-dose-only effect, or effect the other way; inactive means no such curve, though single readings can be large or run the other way.
Tests used:
[1] = Viability qHTS for spleen associated tyrosine kinase inhibitor (SYKi) naive MV4-11 cells (AID 1963823); conditions: MV4-11 AML viability, CellTiter-Glo luminescence, 72 h; viability (% of control): at 45 µM (top of the series); further: nearly all actives have a fitted effect of over 40% in size
Summary of the method: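 Read-out: CellTiter-Glo luminescence. Exposure: 72 hr, 37 C, 5% CO2, 95% humidity. Cells: MV4-11 without SYK inhibitor history, 500/well, qHTS format.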

[2] = Viability qHTS for spleen associated tyrosine kinase inhibitor (SYKi) drug resistant MV4-11 cells (AID 1963824); conditions: SYKi-resistant MV4-11 viability, CellTiter-Glo, 72 h; series mostly up to 45 µM; further: nearly all actives have a fitted effect of over 35% in size
Summary of the method: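 SYK inhibitor-resistant MV4-11 AML cells, 500 per well, added to predispensed compounds and incubated 72 hr at 37 C, 5% CO2. Viability measured by CellTiter-Glo luminescence after 10 min at room temperature.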
Potency means the concentration at half of the fitted maximal effect; tags describe the fitted curve by direction and shape.

Row | SMILES | Potency [1] | Potency [2] | viability (% of control) [1] | viability, % of control [2]
1 | C=C[C@](C)(CC/C=C(\C)C(=O)O)O[C@@H]1OC[C@H](O)[C@H](O)[C@H]1O | inconclusive: 1.43 µM [cytotoxic, partial curve, poor fit] | inactive | – | –
2 | Cc1ccccc1Sc1ccc(/C=C2\SC(=S)NC2=O)cc1[N+](=O)[O-] | inactive | inconclusive: 0.58 µM [cytotoxic, partial curve, poor fit] | – | –
3 | O=C1NC(=O)/C(=C/c2ccc3c(c2)OCO3)S1 | inconclusive: 18.4 µM [cytotoxic, single point] | inconclusive: 18.4 µM [cytotoxic, partial curve, poor fit] | – | –
4 | C=C1C(=O)O[C@@H]2C[C@H](C)[C@@]3(O)C=C(C(C)=O)[C@]4(CC3C[C@H]12)C(=O)O[C@H]1C[C@@H](C)C(CCC(C)=O)=CC[C@H]14 (stereo not given in full) | inconclusive: 10 µM [cytotoxic, partial curve] | inconclusive: 11.2 µM [cytotoxic, partial curve] | – | –
5 | O=C(O)c1cc2cccc([N+](=O)[O-])c2[nH]1 | inactive | inconclusive: 9.2 µM [cytotoxic, partial curve, poor fit] | – | –
6 | C[n+]1cc(NC(=O)c2cccc(C(=O)Nc3cc4ccccc4[n+](C)c3)n2)cc2ccccc21 | inconclusive: 9.2 µM [cytotoxic, partial curve] | inconclusive: 2.31 µM [cytotoxic, partial curve] | – | –
7 | Nc1c[n+](N2CCOCC2)no1 | inactive | inactive | – | –
8 | OC[C@@H](O)[C@@H](O[C@@H]1O[C@H](CO)[C@H](O)[C@H](O)[C@H]1O)[C@H](O)[C@@H](O)CO | inactive | inactive | – | –
9 | CC(C)(Oc1ccc(Cl)cc1)C(=O)OCCCOC(=O)C(C)(C)Oc1ccc(Cl)cc1 | inconclusive: 8.41 µM [cytotoxic, partial curve, poor fit] | inconclusive: 15 µM [cytotoxic, partial curve] | – | –
10 | C/C=C1/CC2C(=O)Nc3cc(O)c(OC)cc3C(=O)N2C1 (stereo not given) | active: 16.1 µM | active: 14.3 µM | – | –
11 | C[C@H](NCc1ccc(OCc2ccccc2F)cc1)C(N)=O | inconclusive: 2.91 µM [cytotoxic, full curve, poor fit] | inconclusive: 6.51 µM [cytotoxic, partial curve, poor fit] | – | –
12 | CC(=O)/C=C/[C@H]1[C@](C)(O)[C@@H](O)[C@H](O)C2C(C)(C)CCC[C@@]21C (stereo not given in full) | inactive | inactive | – | –
13 | CO[C@@H]1CC(OC2CCC3(C)C(CCC45CCC(C6=CC(=O)OC6)C(C)(CCC43)C5=O)C2)O[C@H](C)[C@@H]1O[C@@H]1O[C@H](CO[C@@H]2O[C@H](CO)[C@@H](O)[C@H](O)[C@H]2O)[C@@H](O)[C@H](O)[C@H]1O (stereo not given in full) | active: 0.873 µM | active: 0.778 µM | – | –
14 | C=C1/C(=C/C=C2\CCC[C@]3(C)[C@@H]([C@H](C)/C=C/C(=O)C4CC4)CC[C@@H]23)C[C@@H](O)C[C@@H]1O | inconclusive: 1.64 µM [cytotoxic, full curve] | inconclusive: 5.17 µM [cytotoxic, partial curve] | – | –
15 | CCc1nnc(NS(=O)(=O)c2ccc(NC(=S)NC(=O)/C=C/c3ccc(F)cc3)cc2)s1 | inconclusive: 1.64 µM [cytotoxic, single point] | inconclusive: 25.9 µM [cytotoxic, single point] | – | –
16 | COc1cc(OC)c(/C=C2\C(=O)Nc3ccccc32)c(OC)c1 | inconclusive: 0.0046 µM [cytotoxic, full curve] | inconclusive: 0.0046 µM [cytotoxic, full curve] | – | –
17 | NCCCNc1ccc(Nc2nccc(Nc3cc(C4CC4)[nH]n3)n2)cc1 | inconclusive: 0.146 µM [cytotoxic, full curve] | active: 0.164 µM | – | –
18 | N[C@H](C(=O)O)[C@@H](O)c1ccc(O)c(O)c1 | inconclusive: 0.0024 µM [rising, full curve] | inconclusive: 0.0019 µM [rising, full curve, poor fit] | – | –
19 | O=C(Nc1ccc(-c2ccncc2)cc1)N[C@H](CO)c1ccccc1 | inconclusive: 13 µM [cytotoxic, partial curve] | inconclusive: 23.1 µM [cytotoxic, partial curve] | – | –
20 | CC(O)/C=C/C1C(C)C(O[C@@H]2O[C@H](CO)[C@@H](O)[C@H](O)[C@H]2O)C(O)CC1(C)C (stereo not given in full) | inactive | inactive | – | –

Row | SMILES | Potency [1] | Potency [2] | viability (% of control) [1] | viability, % of control [2]
21 | Cc1nc(Nc2ccc(F)cc2)nc(N2CCc3ccccc3C2C)c1C (stereo not given) | active: 20.6 µM | active: 14.6 µM | – | –
22 | CC(C)(C)NC(=O)[C@H]1CC[C@H]2[C@@H]3CC[C@H]4NC(=O)CC[C@]4(C)[C@H]3CC[C@]12C | inactive | inconclusive: 23.1 µM [cytotoxic, single point] | – | –
23 | CCCSc1nc(NC2CC2c2ccc(F)c(F)c2)c2nnn(C3CC(OCCO)C(O)C3O)c2n1 (stereo not given) | inconclusive: 18.4 µM [cytotoxic, single point] | active: 20.6 µM | – | –
24 | CC(=O)C=C=C1C(C)(C)CC(O[C@@H]2O[C@H](CO)[C@@H](O)[C@H](O)[C@H]2O)CC1(C)O (stereo not given in full) | inactive | inactive | – | –
25 | CN1CCN(N)CC1 | inconclusive: 0.0067 µM [cytotoxic, full curve, poor fit] | inactive | – | –
26 | CCCC(=O)O[C@@H]1[C@@H]2[C@@H](OC(C)=O)[C@]3(C)C(=O)[C@H]4[C@@H](OC(C)=O)C(C)(C)C[C@H]4[C@]3(C)C(=O)[C@@]2(OC(C)=O)C[C@@H]1C | inactive | inconclusive: 10 µM [cytotoxic, single point] | – | –
27 | CC(=O)OCC(=O)[C@@]1(O)CC[C@H]2[C@@H]3CCC4=CC(=O)CC[C@]4(C)[C@H]3C(=O)C[C@@]21C | inactive and inconclusive: 23.5 µM [cytotoxic, partial curve] | inactive and inconclusive: 33.2 µM [cytotoxic, single point] | – | –
28 | CC1(C)Oc2ncnc(N)c2N=C1c1ccc(C23CCC(CC(=O)O)(CC2)CC3)cc1 | inconclusive: 11.6 µM [cytotoxic, partial curve, poor fit] | inconclusive: 6.51 µM [cytotoxic, partial curve] | – | –
29 | C[C@@H]1O[C@@H](O[C@H]2[C@H](O)[C@@H](O)[C@H](OC[C@H]3O[C@@H](OC(=O)[C@]45CCC(C)(C)C[C@H]4C4=CCC6[C@@]7(C)C[C@@H](O)[C@H](O)[C@@](C)(CO)C7[C@H](O)C[C@@]6(C)[C@]4(C)CC5)[C@H](O)[C@@H](O)[C@@H]3O)O[C@@H]2CO)[C@H](O)[C@H](O)[C@H]1O (stereo not given in full) | – | – | inactive: 86.1% [at 9.25 µM] | inactive: 79.5% [at 9.25 µM]
30 | COc1ccc(-c2c(-c3cc(C(=O)O)ccn3)ncn2C)cc1 | inconclusive: 25.9 µM [cytotoxic, single point] | inconclusive: 23.1 µM [cytotoxic, single point] | – | –
31 | CC1(C)CC[C@]2(C(=O)O)CC[C@]3(C)C(=CCC4[C@@]5(C)C[C@@H](O)[C@H](O)C(C)(C)C5CC[C@]43C)[C@@H]2[C@@H]1O (stereo not given in full) | inactive | inactive | – | –
32 | CN(C)CCN(Cc1ccsc1)c1ccccn1 | inactive | inactive | – | –
33 | O=C(O[C@@H]1Cc2c(O)cc(O)cc2O[C@H]1c1cc(O)c(O)c(O)c1)c1cc(O)c(O)c(O)c1 | inconclusive: 23.1 µM [cytotoxic, single point] | inconclusive: 23.1 µM [cytotoxic, partial curve] | – | –
34 | CCCCCCn1c(=O)c2c(ncn2C)n(C)c1=O | inconclusive: 0.841 µM [rising, partial curve, poor fit] | inconclusive: 0.0119 µM [rising, full curve, poor fit] | – | –
35 | COC(=O)C1=C(C)NC(C)=C(C(=O)OC)C1c1cccc(NC(=O)NCCCN2CCC(c3cccc(OC)c3)CC2)c1 | inconclusive: 3.66 µM [cytotoxic, full curve] | inconclusive: 2.59 µM [cytotoxic, full curve] | – | –
36 | COc1ccc(NC(=O)c2ccc(-c3ccc(C(=N)N)cc3C)cc2)cc1N1CCN(C)CC1 | inconclusive: 20.6 µM [cytotoxic, partial curve, poor fit] | inconclusive: 18.4 µM [cytotoxic, single point] | – | –
37 | C=CC(C)(CCC=C(C)C)O[C@@H]1O[C@H](CO)[C@@H](O)[C@H](O)[C@H]1O (stereo not given in full) | inactive | inactive | – | –
38 | CC(C)(O)[C@@H]1CC[C@]2(CO)[C@@H](O)CC[C@](C)(O)[C@H]2[C@@H]1O[C@@H]1O[C@H](CO)[C@@H](O)[C@H](O)[C@H]1O | inconclusive: 1.59 µM [cytotoxic, full curve, poor fit] | inconclusive: 2.82 µM [cytotoxic, single point] | – | –
39 | C[C@@H]1O[C@@H](OC2C(CO)OC(OCC3OC(OC(=O)[C@]45CCC(C)(C)CC4C4=CCC6[C@@]7(C)CC[C@@H](O)[C@](C)(C(=O)O)C7CC[C@@]6(C)[C@]4(C)CC5)C(O)C(O)C3O)C(O)C2O)[C@H](O)[C@H](O)[C@H]1O (stereo not given in full) | inconclusive: 3.9 µM [cytotoxic, partial curve] | inconclusive: 6.93 µM [cytotoxic, single point] | – | –
40 | COc1ccc2c(c1)[C@@H]1C[C@]1(C(=O)N1[C@@H]3CC[C@H]1CN(C)C3)Cn1c-2c(C2CCCCC2)c2ccc(C(=O)NS(=O)(=O)N(C)C)cc21 | active: 11.6 µM | active: 7.31 µM | – | –
